Data from PubChem BioAssay AID540317 (National Center for Advancing Translational Sciences (NCATS), 2011).
Hit rate of the full screen: of about 390,000 compounds, about 2,200 (0.56%) were called active. This list was built around the results that the source calls inconclusive (neither active nor inactive); the mix of calls is not that of the screen. Calls follow the shape of the dose curve; as a rule, active = well fitted inhibition curve with a large enough effect; inconclusive = small, poorly fitted or top-dose-only effect; inactive = no such curve, though single readings can be large or run the other way. Potencies beside an inconclusive call are fits to weak or partial responses and may not hold up.

What follows are compounds tested against Chromobox protein homolog 1 (Homo sapiens) (UniProt P83916) (assay: HTS for Inhibitors of HP1-beta Chromodomain Interactions with Methylated Histone Tails). Conditions: AlphaScreen HP1-beta / biotin-H3K9me3 peptide binding; series mostly up to 114 µM.
Chain of UniProt P83916 (P83916 whole entry, looked up): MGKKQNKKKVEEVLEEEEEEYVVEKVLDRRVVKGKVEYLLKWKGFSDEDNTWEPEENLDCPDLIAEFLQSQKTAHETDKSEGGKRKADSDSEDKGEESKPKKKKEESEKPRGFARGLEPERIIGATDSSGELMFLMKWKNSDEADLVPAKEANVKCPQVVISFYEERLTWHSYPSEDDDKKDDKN
In short: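 Compound inhibition of the preformed complex between 50 nM HP1-beta and 50 nM biotinylated H3K9me3 peptide was read by AlphaScreen. Buffer was PBS pH 7.4 with 0.01% Tween-20. Incubations ran 30 min at room temperature, with 10 ug/mL donor/acceptor beads.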
Also: nearly all actives have a fitted effect of over 70% in size.
Potency is read from the fitted curve at half-maximal effect; tags tell the direction and shape of the fitted curve.

| SMILES | Potency |
| --- | --- |
| COc1ccc(CC(=O)n2[nH]c(=O)ccc2=O)cc1OC | active: 8.91 µM |
| COC(=O)c1ccc(NC(=O)CCS(=O)(=O)c2ccc3c(c2)NC(=O)C(C)S3)cc1 (stereo not drawn) | inactive |
| COc1ccc(C(=O)C2CCCN(C(=O)CSC)C2)cc1OC (stereo not drawn) | inactive |
| CC(C)CSc1oc(-c2ccco2)nc1S(=O)(=O)c1ccc(Br)cc1 | inactive |
| CN(Cc1ccccc1)C(=O)C1CCCN(Cc2ccc(Cl)cc2)C1 (stereo not drawn) | inconclusive: 17.8 µM [inhibitor, partial curve, poor fit] |
| O=C(c1csc(Nc2ccccc2Cl)n1)N1CCCC1 | inactive |
| Cc1ccc(CCNC(=O)c2cc3c(=O)oc4ccccc4c3s2)cc1 | inactive |
| Clc1ccccc1Cc1noc(CN2CCN3CCCC3C2)n1 (stereo not drawn) | inconclusive: 89.1 µM [inhibitor, single point] |
| Cc1ccc(NC(=O)CN2CCCC2c2cccn2C)c(Br)c1 (stereo not drawn) | inconclusive: 50.1 µM [inhibitor, partial curve] |
| Cc1ccc(-c2nnc(-c3cccs3)o2)cc1 | inactive |
| COc1cccc(CNC(=O)CNS(=O)(=O)c2ccc3nc(C)sc3c2)c1 | inactive |
| C#CCOCCOCCOCCNc1nc(N2CCN(C(=O)[C@H](CCCN=C(N)N)n3cc(C(N)[C@@H](C)CC)nn3)CC2)nc(N2CCN(C(=O)[C@H](CCC(=O)O)n3cc([C@@H](N)CC(N)=O)nn3)CC2)n1 (stereo partly drawn) | inactive |
| Cc1ccc(OCC(=O)N/N=C\c2c(C)n(C)c3ccccc23)c([N+](=O)[O-])c1 | inconclusive: 15.8 µM [inhibitor, partial curve, poor fit] |
| CC1(C)CC(=O)C2=C(C1)N(c1ccc(F)cc1)C(=O)CC2c1cccnc1 (stereo not drawn) | inactive |
| COc1ccc(Cl)cc1-n1c(N)c(C(N)=O)sc1=S | inconclusive: 22.4 µM [inhibitor, full curve, poor fit] |
| O=C(c1ccccc1F)N1CCN(CC2CC3C=CC2C3)CC1 (stereo not drawn) | inconclusive: 56.2 µM [inhibitor, partial curve, poor fit] |
| CCC(C)Nc1nc(N)c([N+](=O)[O-])c(Nc2ccccc2OC)n1 (stereo not drawn) | inconclusive: 44.7 µM [inhibitor, partial curve] |
| NNc1nc2c(Cl)cccc2s1 | inconclusive: 70.8 µM [inhibitor, partial curve] |
| CC(NC(=O)c1ccccc1F)C(=O)O (stereo not drawn) | inactive |
| CC(C)C(=O)Nc1nnc(Cc2c[nH]c3ccccc23)s1 | inactive |
| CN(C)c1cccc(NC(=O)c2cccc3ccccc23)c1 | active: 50.1 µM |
| CCn1c(SCC(=O)Nc2nc(C)cs2)nnc1C(C)NC(=O)c1ccccc1 (stereo not drawn) | inconclusive: 28.2 µM [inhibitor, partial curve, poor fit] |
| CC(/C=N\N1CCN(Cc2ccc(C)cc2)CC1)=C\c1ccccc1 | inconclusive: 39.8 µM [inhibitor, partial curve, poor fit] |
| Cc1cc(N=Nc2ccccc2C(=O)O)c(C)c(C)c1O | inconclusive: 39.8 µM [inhibitor, partial curve] |

| SMILES | Potency |
| --- | --- |
| Nc1ccc2c(c1)C(=NO)c1cc([N+](=O)[O-])ccc1-2 | inconclusive: 25.1 µM [inhibitor, single point] |
| Cc1cc(C)cc(NC(=O)[C@H](NC(=O)[C@@H]2Cc3ccccc3CN2)c2ccccc2)c1 | inactive |
| O=C1Nc2ccccc2/C1=C/c1ccccc1F | inactive |
| Cc1ccccc1NS(=O)(=O)c1ccc2[nH]cc(C(=O)NC(C)c3ccccc3)c(=O)c2c1 (stereo not drawn) | inactive |
| CCNC(=O)c1ccc2nc(CCc3ccccc3)oc2c1 | inactive |
| CCOc1ccc(NC(=S)NC(=O)c2c(Br)cnn2C)c([N+](=O)[O-])c1 | inconclusive: 31.6 µM [inhibitor, partial curve] |
| O=C1c2ccccc2-c2onc3ccc(NCCCn4ccnc4)c1c23 | inconclusive: 35.5 µM [inhibitor, single point] |
| CN(C)C(CNC(=O)c1cc(-c2ccco2)nc2ccccc12)c1ccccc1 (stereo not drawn) | inactive |
| COc1ccc(N/C(C)=C/C(=O)c2ccccc2)cc1 | inconclusive: 31.6 µM [inhibitor, single point] |
| Cc1cccc(Cn2cc3c(=O)n(Cc4cccc(F)c4)nc-3c3ccccc32)c1 | inconclusive: 89.1 µM [inhibitor, single point] |
| COc1ccc(C2=CSC(/N=C/c3ccc(F)cc3)=NN2)cc1 | inconclusive: 56.2 µM [inhibitor, single point] |
| O=C(O)c1ccc(C=NN=C2c3ccccc3-c3ccccc32)cc1 | inconclusive: 31.6 µM [inhibitor, partial curve] |
| COc1ccc(CNC(=O)c2sc3nc4c(c(C(F)(F)F)c3c2N)CCC4)cc1OC | inconclusive: 39.8 µM [inhibitor, single point] |
| CCc1cccc(C)c1NC(=O)CSc1n[nH]c(N)n1 | inactive |
| O=C(NNC(=O)C1CCC1)c1ccccc1F | inactive |
| Cc1ccc(-n2c(SCC(=O)NCc3ccccc3)nc3n[nH]c(C)c3c2=N)cc1Cl | inactive |
| CCNC(=S)NNC(=O)c1csc(C)c1 | inconclusive: 39.8 µM [inhibitor, single point] |
| CCOC(=O)c1c(-c2ccco2)csc1NC(=O)COC(=O)c1cnc(C)cn1 | inconclusive: 79.4 µM [inhibitor, single point] |
| CSc1ccc(COC(=O)c2cc([N+](=O)[O-])ccc2N2CCOCC2)cc1 | inconclusive: 35.5 µM [inhibitor, partial curve] |
| Cc1[nH]c2ccccc2c1CN1CCC(Cc2ccccc2)CC1 | inconclusive: 56.2 µM [inhibitor, partial curve, poor fit] |
| Cc1ccc(OCC(=O)Nc2ccc(S(=O)(=O)Nc3cc(C)nc(C)n3)cc2)cc1 | inactive |
| CCn1cnc2sc(C(=O)Oc3ccc(Br)cc3)c(C)c2c1=O | inactive |
| CC1CCc2c(sc(NC(=O)c3ccc(Cl)cc3Cl)c2C#N)C1 (stereo not drawn) | inactive |
| CCOC(=O)N1CCc2c(sc(NCc3ccc(N(C)C)cc3)c2C(=O)Nc2ccc(OC)cc2)C1 | inconclusive: 28.2 µM [inhibitor, partial curve] |
